Measured values as given in publication PMC7442955, “Biochemical and functional characterization of a meiosis-specific Pch2/ORC AAA+ assembly” (Life Science Alliance, 2020).
Results are given in words; binding and its absence hold for the method and conditions named. Some entries that bind do so weakly or less than the wild type. For some assays here: Where a sequence is shown, tags or fusion partners need not be part of it.

T1: Orc1 (yeast two-hybrid fusion) (budding yeast) (UniProt P54784)
T1 sequence: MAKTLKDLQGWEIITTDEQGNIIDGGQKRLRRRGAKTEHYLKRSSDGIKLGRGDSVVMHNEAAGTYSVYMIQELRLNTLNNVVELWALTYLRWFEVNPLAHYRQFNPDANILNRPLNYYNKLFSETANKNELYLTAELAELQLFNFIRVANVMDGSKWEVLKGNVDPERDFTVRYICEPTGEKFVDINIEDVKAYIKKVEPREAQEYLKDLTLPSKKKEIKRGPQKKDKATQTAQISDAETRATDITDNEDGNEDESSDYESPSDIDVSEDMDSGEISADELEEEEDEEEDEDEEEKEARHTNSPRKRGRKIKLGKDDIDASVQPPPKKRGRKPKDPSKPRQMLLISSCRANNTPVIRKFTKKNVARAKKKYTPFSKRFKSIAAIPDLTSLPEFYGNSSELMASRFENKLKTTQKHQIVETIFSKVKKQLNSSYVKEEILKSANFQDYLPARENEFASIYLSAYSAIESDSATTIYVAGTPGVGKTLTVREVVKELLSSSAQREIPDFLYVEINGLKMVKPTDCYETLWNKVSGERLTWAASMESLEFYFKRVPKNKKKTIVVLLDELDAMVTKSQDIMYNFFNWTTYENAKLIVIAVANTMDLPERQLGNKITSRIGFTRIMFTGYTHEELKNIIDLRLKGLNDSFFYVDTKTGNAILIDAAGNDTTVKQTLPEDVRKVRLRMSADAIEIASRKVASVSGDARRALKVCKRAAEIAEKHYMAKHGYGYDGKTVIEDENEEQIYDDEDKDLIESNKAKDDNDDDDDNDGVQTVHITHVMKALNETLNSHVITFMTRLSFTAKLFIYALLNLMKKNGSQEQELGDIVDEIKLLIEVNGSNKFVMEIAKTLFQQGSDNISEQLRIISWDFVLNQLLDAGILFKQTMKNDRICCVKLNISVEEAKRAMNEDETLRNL

T2: Orc2 (subunit of the insect cell–purified ORC) (budding yeast) (UniProt P32833)
T2 sequence: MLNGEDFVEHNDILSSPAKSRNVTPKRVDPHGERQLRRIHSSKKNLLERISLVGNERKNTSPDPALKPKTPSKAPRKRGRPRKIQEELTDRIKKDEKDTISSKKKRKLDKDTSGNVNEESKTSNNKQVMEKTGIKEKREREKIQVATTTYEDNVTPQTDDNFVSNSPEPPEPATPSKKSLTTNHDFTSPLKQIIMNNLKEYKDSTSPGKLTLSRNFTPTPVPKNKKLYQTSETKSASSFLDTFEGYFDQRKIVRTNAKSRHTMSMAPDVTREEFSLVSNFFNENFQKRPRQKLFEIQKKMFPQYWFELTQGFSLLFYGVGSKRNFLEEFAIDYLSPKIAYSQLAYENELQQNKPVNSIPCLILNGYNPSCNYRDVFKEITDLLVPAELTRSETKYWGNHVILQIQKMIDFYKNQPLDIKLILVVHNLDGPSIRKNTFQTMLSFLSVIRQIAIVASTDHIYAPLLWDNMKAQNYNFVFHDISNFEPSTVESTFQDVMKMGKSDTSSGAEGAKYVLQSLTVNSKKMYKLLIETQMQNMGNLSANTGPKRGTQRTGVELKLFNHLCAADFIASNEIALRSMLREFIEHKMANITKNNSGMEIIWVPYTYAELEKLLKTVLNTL

T3: His–Orc1 (subunit of the insect cell–purified ORC) (budding yeast), P54784
T3 chain: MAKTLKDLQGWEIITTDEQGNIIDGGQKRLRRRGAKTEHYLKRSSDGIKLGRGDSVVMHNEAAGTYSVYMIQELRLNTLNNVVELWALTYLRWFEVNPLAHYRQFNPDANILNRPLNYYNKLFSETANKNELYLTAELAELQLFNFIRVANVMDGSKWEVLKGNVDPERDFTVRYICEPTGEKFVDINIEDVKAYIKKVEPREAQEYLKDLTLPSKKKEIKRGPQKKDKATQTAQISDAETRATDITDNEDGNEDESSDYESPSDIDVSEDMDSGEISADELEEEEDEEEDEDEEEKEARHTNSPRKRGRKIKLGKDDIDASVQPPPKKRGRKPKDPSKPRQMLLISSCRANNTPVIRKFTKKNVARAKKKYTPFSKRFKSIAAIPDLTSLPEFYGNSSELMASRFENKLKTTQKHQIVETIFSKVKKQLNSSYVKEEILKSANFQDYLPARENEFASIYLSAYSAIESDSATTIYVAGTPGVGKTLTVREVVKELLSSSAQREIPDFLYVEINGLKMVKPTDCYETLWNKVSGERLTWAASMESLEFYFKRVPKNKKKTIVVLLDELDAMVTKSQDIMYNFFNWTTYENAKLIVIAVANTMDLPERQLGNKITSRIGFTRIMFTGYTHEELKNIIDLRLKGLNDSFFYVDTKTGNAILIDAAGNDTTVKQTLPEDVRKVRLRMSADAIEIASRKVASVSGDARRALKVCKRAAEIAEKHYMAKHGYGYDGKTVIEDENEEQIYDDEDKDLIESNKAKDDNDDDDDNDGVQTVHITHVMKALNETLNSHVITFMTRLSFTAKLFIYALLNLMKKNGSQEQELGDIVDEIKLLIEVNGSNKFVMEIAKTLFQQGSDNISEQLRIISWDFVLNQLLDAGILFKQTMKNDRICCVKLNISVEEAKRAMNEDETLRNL


Legend:
[1] = molecular target: T1, Orc1 (yeast two-hybrid fusion) (budding yeast); test: two-hybrid; bait and prey in pGBDU-C1 or pGAD-C1, reporter strain yGV864; spot assay on -Ura-Leu-His plates, 2–4 d
[2] = molecular target: T2, Orc2 (subunit of the insect cell–purified ORC) (budding yeast); test: cross-linking; XL-MS: 0.75 μM His–MBP–Pch2 with 1.5 μM His–ORC, 30 mM HEPES pH 7.5, 150 mM NaCl, 2 mM TCEP, 90 min at 4°C; 3 mM DSBU, 25°C, 1 h; MeroX, 2% FDR; both purified
[3] = molecular target: T3, His–Orc1 (subunit of the insect …); test: as above; details: remark: other sources report otherwise

Row | binding [1] | Binder | other results
1 | no binding | SYIVDLQVRGSSLRVIKCMFREDEQI (domain or fragment, UniProt P38126 2-27) [Pch2 2-27 (yeast two-hybrid fusion)] | 
2 |  | Orc3 (subunit of the insect cell–purified ORC) (protein, UniProt P54790 1-616) MSDLNQSKKMNVSEFADAQRSHYTVYPSLPQSNKNDKHIPFVKLLSGKESEVNVEKRWELYHQLHSHFHDQVDHIIDNIEADLKAEISDLLYSETTQKRRCFNTIFLLGSDSTTKIELKDESSRYNVLIELTPKESPNVRMMLRRSMYKLYSAADAEEHPTIKYEDINDEDGDFTEQNNDVSYDLSLVENFKRLFGKDLAMVFNFKDVDSINFNTLDNFIILLKSAFKYDHVKISLIFNINTNLSNIEKNLRQSTIRLLKRNYHKLDVSSNKGFKYGNQIFQSFLDTVDGKLNLSDRFVEFILSKMANNTNHNLQLLTKMLDYSLMSYFFQNAFSVFIDPVNVDFLNDDYLKILSRCPTFMFFVEGLIKQHAPADEILSLLTNKNRGLEEFFVEFLVRENPINGHAKFVARFLEEELNITNFNLIELYHNLLIGKLDSYLDRWSACKEYKDRLHFEPIDTIFQELFTLDNRSGLLTQSIFPSYKSNIEDNLLSWEQVLPSLDKENYDTLSGDLDKIMAPVLGQLFKLYREANMTINIYDFYIAFRETLPKEEILNFIRKDPSNTKLLELAETPDAFDKVALILFMQAIFAFENMGLIKFQSTKSYDLVEKCVWRGI | binding [2]: binds
3 |  | Orc2 (subunit of the insect cell–purified ORC), P32833 1-620 (protein) MLNGEDFVEHNDILSSPAKSRNVTPKRVDPHGERQLRRIHSSKKNLLERISLVGNERKNTSPDPALKPKTPSKAPRKRGRPRKIQEELTDRIKKDEKDTISSKKKRKLDKDTSGNVNEESKTSNNKQVMEKTGIKEKREREKIQVATTTYEDNVTPQTDDNFVSNSPEPPEPATPSKKSLTTNHDFTSPLKQIIMNNLKEYKDSTSPGKLTLSRNFTPTPVPKNKKLYQTSETKSASSFLDTFEGYFDQRKIVRTNAKSRHTMSMAPDVTREEFSLVSNFFNENFQKRPRQKLFEIQKKMFPQYWFELTQGFSLLFYGVGSKRNFLEEFAIDYLSPKIAYSQLAYENELQQNKPVNSIPCLILNGYNPSCNYRDVFKEITDLLVPAELTRSETKYWGNHVILQIQKMIDFYKNQPLDIKLILVVHNLDGPSIRKNTFQTMLSFLSVIRQIAIVASTDHIYAPLLWDNMKAQNYNFVFHDISNFEPSTVESTFQDVMKMGKSDTSSGAEGAKYVLQSLTVNSKKMYKLLIETQMQNMGNLSANTGPKRGTQRTGVELKLFNHLCAADFIASNEIALRSMLREFIEHKMANITKNNSGMEIIWVPYTYAELEKLLKTVLNTL | binding [3]: binds
4 | no binding | Pch2 2-91 (yeast two-hybrid fusion) (domain or fragment, UniProt P38126 2-91) SYIVDLQVRGSSLRVIKCMFREDEQISSLHSGSDSKQNSNKKLGEFLNLLKAVVKRKLESFPKDRLKTSIITGQELMREGQGSIEIKDPP | 
5 | no binding | Pch2 2-121 (yeast two-hybrid fusion) (domain or fragment, UniProt P38126 2-121) SYIVDLQVRGSSLRVIKCMFREDEQISSLHSGSDSKQNSNKKLGEFLNLLKAVVKRKLESFPKDRLKTSIITGQELMREGQGSIEIKDPPTEAQQHLIRSLAKVLLHQFSSINGKVNTVN | 
